In the supplement of paper PMC3334620:
The full ranking holds about 33,000 sequences; the median of “E-score (-0.5 to 0.5)” is about -0.016, and the highest 2% start at about 0.32. This is one part of the list.

Target: T1, Stp1 (UniProt B3LFK1)
T1 sequence: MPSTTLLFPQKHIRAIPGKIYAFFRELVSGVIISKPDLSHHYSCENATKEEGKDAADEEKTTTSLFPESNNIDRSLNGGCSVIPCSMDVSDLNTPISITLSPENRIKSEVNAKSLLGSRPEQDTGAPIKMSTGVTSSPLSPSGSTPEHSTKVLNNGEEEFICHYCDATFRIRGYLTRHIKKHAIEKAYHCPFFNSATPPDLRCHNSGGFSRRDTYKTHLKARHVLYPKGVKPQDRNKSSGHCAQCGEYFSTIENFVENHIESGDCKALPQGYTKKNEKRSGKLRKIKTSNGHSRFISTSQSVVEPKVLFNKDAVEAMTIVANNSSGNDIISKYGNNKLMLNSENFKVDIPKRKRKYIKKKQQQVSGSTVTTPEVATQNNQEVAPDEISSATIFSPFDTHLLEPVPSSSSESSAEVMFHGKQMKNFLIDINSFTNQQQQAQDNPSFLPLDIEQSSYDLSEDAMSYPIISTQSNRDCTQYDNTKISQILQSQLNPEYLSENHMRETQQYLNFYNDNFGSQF
Experiment: PBM E-score (8-mer binding enrichment) (E-score (-0.5 to 0.5)); higher = stronger / more preferred TF binding; most listed sequences are background and not binding sites
Conditions: protein concentration: 200 nM; construct: GST-full length
Summary of the method: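 Yeast transcription factors, full-length or as DNA-binding domains, were expressed with a GST tag using PURExpress in vitro transcription/translation. At about 100-200 nM they were applied to universal all-10-mer Agilent arrays, double-stranded by primer extension on fresh or once-stripped slides. Fluorescent anti-GST detected bound protein, and masliner normalised the scans. E-scores for ungapped eight-base words, pooled with reverse complements, came from the Universal PBM Analysis Suite.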

Sequence | PBM E-score
GAAGAGGA | -0.286
ACTCTTCT | -0.0477
CTAGCTCC | -0.106
AGGTCCGA | -0.0987
CCTCAAAC | 0.0517
CCACCCCG | -0.08
GCTCTAAC | 0.076
CCAGAATC | -0.0343
ATTCTGAC | -0.172
CACTGAGG | 0.0366
GATAATCA | 0.138
ATGTGAAG | 0.0231
CATCATTC | -0.0189
TGTAGTAA | 0.0399
AATTGAAA | -0.00219
TCAACCCA | 0.0435
AGGTAAGC | -0.118
ATGAGTGA | 0.0723
CATGGGGC | 0.169
GCAGCCAA | 0.00403
CTCGGCTC | 0.029
CAGAAGTA | 0.181
ATCTGCAT | 0.101
AAGTAACT | 0.105
ACTGTTAT | 0.0873

Sequence | PBM E-score
TGCACGAA | 0.209
AGTGATAG | -0.125
TCAAAAAA | 0.131
CCAGCCGG | -0.156
TCAGTGGA | 0.0187
ACAAACGA | 0.129
ATCGCGAA | 0.0513
AAGGCGAT | 0.329
CTGGGCGA | -0.253
CGAAATCA | 0.202
CGAGAAGA | -0.0301
ATCGACCG | -0.107
CGAGTTGC | 0.0649
GCCTCACA | 0.263
CATGGATA | -0.0216
GCGAAAAC | 0.154
AACACTTA | 0.0357
CGTTAACA | 0.0754
CGGGAGTC | -0.238
ATAACAGG | 0.00569
AATAACGT | 0.0652
CCACGCGA | -0.133
AAGAGCAC | -0.0326
AAACCATA | 0.135
GAGCCATA | 0.0155

Sequence | PBM E-score
CTCGCTAC | -0.195
GATAGTGA | 0.171
CCAAGGGG | 0.113
AAGATGAG | -0.0799
GAGCTAGC | -0.131
CACACTGG | -0.394
CAATCAGA | -0.0823
AGAAGCGA | -0.0609
ACAATTAA | 0.19
CACCAACC | -0.125
ACAGTCAG | 0.0149
CGTGTCGC | 0.223
GGGTTGTA | 0.00753
GTACCAAA | 0.0684
CGAGGACG | -0.181
ATGGGGTA | -0.0634
TCGGAAGA | -0.178
ATGGATCC | -0.0375
GATTCGAC | -0.0793
CGTATTTC | 0.108
GTCCGGTA | -0.18
ATTTACCG | 0.0264
AACCTCAA | -0.137
CATATGCG | 0.158
GGCTCTTA | 0.123

Sequence | PBM E-score
CAATACCA | 0.0554
TCTACTAA | 0.093
AAATCGCG | 0.0514
GGTAGAGA | -0.101
TCCATCGA | -0.0911
TGCGCGAA | 0.147
GAGATCGA | 0.0205
GCTGACCC | -0.317
ACGATCAA | 0.0497
CCTCCACC | -0.269
CAACTGGC | 0.0583
ACTTTACT | 0.00333
ACGGAGCA | 0.117
CCATACGC | 0.0591
AGTGGTTA | -0.00537
AGGGTAGG | -0.212
AAGCCTTA | 0.053
GTCGTGCA | -0.196
AAAGACTG | -0.128
AGTTATTC | -0.0856
CTGGGGAC | -0.392
GGGGTACC | -0.371
ATACAGTG | -0.135
ACTTGGTA | 0.0875
ATTGTAGA | 0.166

Sequence | PBM E-score
TAGTAGAA | 0.0663
GGGCTTAA | -0.178
GCGGCGAA | 0.427
CCTGCTCA | -0.222
CCGCTGAA | 0.0649
ACTACGAG | -0.0896
AAAAAGGT | -0.125
AAGTAACA | 0.0258
GCCTTGAC | -0.0588
GCCCAGAA | -0.194
CCTTAGCG | 0.0836
CTAGTAGC | -0.104
CCAGCGGC | 0.256
CTTAGACA | -0.0856
ACTCATAC | 0.17
AAGGTCTA | -0.154
AATCGCAT | -0.0148
ATTGAAGC | 0.0957
CCAACACA | 0.0312
TATTTGAA | 0.133
GGCATGAC | 0.0361
TACTAATA | 0.132
ATAACTAT | 0.0337
CTCATCTC | 0.0521
CGGTGACG | -0.0126

Sequence | PBM E-score
GCGCGCAC | 0.238
ACGCCGCC | 0.355
AGTGAGTA | 0.206
GTTAGACA | 0.117
AACGCGAA | 0.0866
GTCGAGTA | -0.134
CGTGTGTA | 0.108
CACTTTTA | 0.0976
CGCCTCAA | 0.1
AATGCGTG | -0.0465
AATCCGGA | -0.102
ATGCCGAA | 0.311
ATTCGAAT | 0.0494
GAAGACGA | -0.00816
ACGTTGCA | 0.0131
CCCAGGAA | -0.237
CCACCCTC | -0.124
CTTGGCTA | -0.0989
AACCTGTA | 0.0707
GACCCCGC | -0.034
ACTATTTG | 0.0918
AGTGGACG | 0.0487
AACCACAA | 0.179
GCGCCTTA | 0.399
ATTCCGAC | -0.0549

Sequence | PBM E-score
CGAAGCCA | 0.0367
AGGTACAA | 0.121
CGGAGGCA | 0.145
CGACAGAC | -0.174
GTAACTAC | 0.096
AAATCTCT | -0.127
CCTGGACG | -0.292
AACTAGGT | 0.0442
ACGTTCCA | -0.0776
ACGCAATC | -0.0827
GGTGAACA | -0.108
AACTGAGG | 0.016
AATGACTG | -0.245
AGCAATTA | 0.0484
ACCAGATA | 0.0921
AGACTAAT | -0.0406
CATGTAAC | 0.0489
TAGAGTGA | -0.0691
AGCTGGCG | -0.131
CCCCACTC | -0.225
ACCTGCTC | -0.0541
CGCACGTC | 0.132
